# According to PubChem BioAssay AID504832 (National Center for Advancing Translational Sciences (NCATS), 2011):
# Hit rate of the full screen: of about 310,000 compounds, about 18,000 (5.8%) were called active. The inconclusive results got no clear call from the source; some entries with a clear call stand among them for comparison. The call rests on the fitted dose curve; in most records, active means well fitted inhibition curve with a large enough effect; inconclusive means small, poorly fitted or top-dose-only effect, or another doubt; inactive means no such curve, though single readings can be large or run the other way. Potencies of inconclusive entries are left out as doubtful fits.
# Experiment: Primary qHTS for delayed death inhibitors of the malarial parasite plastid, 48 hour incubation
# Settings: P. falciparum luciferase growth in erythrocytes; series mostly up to 28.7 µM
# Procedure, shortened: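 Firefly luciferase activity from engineered P. falciparum reports growth; inhibitors lower the luminescent signal. Cultures contained 2% hematocrit erythrocytes at 0.1% final parasitemia.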
# Potency means the concentration at half of the fitted maximal effect; tags describe the fitted curve by direction and shape.
row,SMILES,Potency
1,Cc1ccc(-c2nn3c(C)nnc3s2)cc1NC(=O)c1ccco1,inactive
2,O=C(CN1CCN(C(=O)c2cccc(S(=O)(=O)N3CCCC3)c2)CC1)Nc1ccc(F)cc1,"inconclusive [inhibitor, partial curve]"
3,N#Cc1nc(COc2ccccc2F)oc1NCCc1ccccc1,inactive
4,O=C(Nc1ccc(Cl)c(Cl)c1)Nc1nc(-c2ccccc2)cs1,"inconclusive [inhibitor, single point]"
5,COc1ccc2c(c1)CCCC21NC(=O)N(CC(=O)c2cc(F)ccc2F)C1=O (configuration not stated),"inconclusive [inhibitor, single point]"
6,Cc1cc(NO)nc(-c2ccc(Br)cc2)n1,"inconclusive [inhibitor, partial curve, poor fit]"
7,Cc1ccc(N2C(=O)C(Cl)=C(N3CCN(C)CC3)C2=O)c(C)c1,"inconclusive [inhibitor, single point]"
8,C=C1CCN(C(C)C(=O)OC)S(=O)(=O)c2ccccc21 (configuration not stated),inactive
9,CC(=O)c1ccc(C(=O)N2CCCC(CNC(=O)c3ccccc3Cl)C2)cc1 (configuration not stated),inactive
10,COCC1CCN(C(=O)c2cc(COc3ccccc3SC)on2)C1 (configuration not stated),inactive
11,COc1ccc(-n2c(C)cc(C(=O)COc3ccc(C)nc3[N+](=O)[O-])c2C)cc1,inactive
12,O=C(NCC1CCCCC1)c1cc(S(=O)(=O)N2CCCCC2)ccc1N1CCOCC1,"inconclusive [inhibitor, single point]"
13,COC/C=C/C1=CC(=O)C[C@H](c2ccc3c(c2)OCO3)C1,"inconclusive [inhibitor, partial curve, poor fit]"
14,Cc1cc(/C=N/NC(N)=S)c(O)c(/C=N/NC(N)=S)c1,active: 0.465 µM
15,Cc1ccc2[nH]c3c(=O)n(CC(=O)N4CCN(C)CC4)ncc3c2c1,inactive
16,COc1ccc(C)cc1Nc1n[n+](-c2ccccc2)c(-c2ccc(SC)cc2)s1,"inconclusive [inhibitor, partial curve, poor fit]"
17,Fc1ccc2c(c1)nnn2C1CCN(Cc2nnnn2C2CCCCC2)CC1,"inconclusive [inhibitor, partial curve]"
18,Cn1ccnc1SC(=O)N1c2ccccc2Sc2ccccc21,"inconclusive [inhibitor, partial curve, poor fit]"
19,CCCN(Cc1ccccc1)C(=S)NC(=O)c1ccccc1[N+](=O)[O-],inactive
20,CC1(C)Cc2c(cnn2-c2ccc(F)cc2)C(NC(=O)CCc2ccncc2)C1 (configuration not stated),"inconclusive [inhibitor, single point]"
21,O=C(c1ccco1)N1CCN(c2nc3ccsc3c(=O)s2)CC1,inactive
22,Cc1cc(C)nc(Nc2n[nH]c(COc3ccccc3)n2)n1,inactive
23,CCN(CC)C(=O)C[n+]1cccc(C(N)=O)c1,inactive
24,O=c1c(-c2ccc(Cl)cc2)coc2c(CN3CCOCC3)c(O)ccc12,active: 8.28 µM

row,SMILES,Potency
1,CC(=O)Nc1cc(NC(C)=O)cc(C(=O)OCC(=O)N(c2ccccc2)C2CCS(=O)(=O)C2)c1 (configuration not stated),inactive
2,C=C1CCC(O)C2(C)CCC3C(C)C(=O)OC3C12O (configuration not stated),inactive
3,COc1ccc(OC)c(-c2csc(NC(=O)c3ccc(F)cc3)n2)c1,"inconclusive [inhibitor, single point]"
4,CC(C)(C)OC(=O)CNC(=O)c1[nH]cnc1C(=O)N[C@@H](CCCCNC(=O)OC(C)(C)C)C(=O)OC(C)(C)C,"inconclusive [inhibitor, partial curve, poor fit]"
5,COc1ccc(-n2c(C)cc(C(=O)C[N+]34CCN(CC3)CC4)c2C)cc1,inactive
6,Cc1cc(C(=O)NNc2c(Cl)cccc2Cl)no1,inactive
7,O=C(NCc1ccccc1)c1sc(=S)n2c1[nH]c(=O)c1ccccc12,inactive
8,Cc1nc2ccccn2c1C(=O)NNC(=S)Nc1ccccc1,"inconclusive [inhibitor, partial curve, poor fit]"
9,CCCCN(C(=O)c1ccc(Cl)c([N+](=O)[O-])c1)c1c(N)n(CCC)c(=O)[nH]c1=O,inactive
10,CCOc1ccc(S(=O)(=O)NCCC(=O)NCCc2ccc(C(C)C)cc2)cc1,inactive
11,C=C1CCN([C@@H](C)C(=O)NCc2ccc(Cl)cc2)S(=O)(=O)c2ccccc21,"inconclusive [inhibitor, single point]"
12,CCN(CC)CCSc1nc2ccccc2n1Cc1ccccc1,"inconclusive [inhibitor, partial curve]"
13,COc1ccccc1N(C)S(=O)(=O)c1ccc(C(=O)Nc2nccs2)cc1,active: 14.7 µM
14,C=CCNC(=O)c1ccccc1NC(=O)C1COc2ccccc2O1 (configuration not stated),"inconclusive [inhibitor, full curve]"
15,COc1ccc(NC(=O)c2cc(Cl)ccc2Cl)c([N+](=O)[O-])c1,inactive
16,CCN=c1scc(-c2ccc3c(c2)NC(=O)CO3)n1N=C1CCCC1,"inconclusive [inhibitor, single point]"
17,O=C(NC(=S)Nc1cccc2cc(O)ccc12)c1ccccc1Br,inactive
18,C=C(C(=O)Nc1ccccc1)c1ccc(C)cc1,"inconclusive [inhibitor, single point]"
19,Cc1ccccc1C(=O)NC(=S)Nc1ccccc1N1CCCC1,"inconclusive [inhibitor, partial curve, poor fit]"
20,Clc1cccc(CN2CCc3c([nH]c4ccccc34)C2)c1Cl,active: 1.85 µM
21,COc1cccc(OC)c1C(=O)NC(=S)Nc1ccc2c(c1)C(=O)N(C)C2=O,active: 1.65 µM
22,O=C(CCC(=O)NC1CCCCC1)N/N=C/c1ccncc1,inactive
23,COc1ccc(Cl)cc1NC(=O)CN(C)C(=O)CCCc1c[nH]c2ccccc12,"inconclusive [inhibitor, full curve, poor fit]"
24,CN(C)C(CNC(=O)CCNS(=O)(=O)c1ccccc1C(F)(F)F)c1ccccc1 (configuration not stated),"inconclusive [inhibitor, single point]"

row,SMILES,Potency
1,CN1CCN(C(=O)c2cc(COc3ccccc3)on2)[C@@H](c2ccccc2)C1,"inconclusive [inhibitor, single point]"
2,Clc1ccc(-c2nsc(N3CCOCC3)n2)c(Cl)c1,inactive
3,Cc1ccc(NC(=O)CSc2nc3ccccc3c(=O)n2CCCN2CCCCC2)cc1C,active: 11.7 µM
4,CC(=O)OC(C)CS(=O)(=O)c1ccccc1 (configuration not stated),inactive
5,COc1ccc(N2CCN(C(=O)CCS(=O)(=O)c3ccc4c(c3)NC(=O)C(C)S4)CC2)cc1 (configuration not stated),"inconclusive [inhibitor, partial curve, poor fit]"
6,COc1cc(Cl)c(C)cc1NC(=O)CSc1nnc(-c2ccco2)n1CC(C)C,"inconclusive [inhibitor, single point]"
7,Clc1ccc(/C(Cc2nc3ccccc3[nH]2)=N\Nc2ccccc2)cc1,"inconclusive [inhibitor, partial curve, poor fit]"
8,COc1ccc(NC(=O)c2ccc(NC(=O)C(C)C)cc2)c([N+](=O)[O-])c1,inactive
9,CCOC(=O)C1CCN(C(=O)c2cccc(C(=O)N3CCC(C(=O)OCC)CC3)c2)CC1,inactive
10,COc1cc(NC(=O)CN2C(=O)CN(C)C2=O)c(C)cc1[N+](=O)[O-],"inconclusive [inhibitor, single point]"
11,CCOC(=O)N1CCN(C(=O)c2ccc3c(=O)n(CCC4=CCCCC4)c(=O)[nH]c3c2)CC1,"inconclusive [inhibitor, partial curve, poor fit]"
12,C=CCN1C(=O)N/C(=C/c2ccccc2OCC(=O)Nc2ccc(F)cc2)C1=O,"inconclusive [inhibitor, single point]"
13,CCOC(=O)C1=C2c3ccc4ccccc4c3CC(C)(C)N2C(=O)C1=O,"inconclusive [inhibitor, single point]"
14,O=C(Nc1ccc(N2CCN(C(=O)c3ccc(Cl)cc3)CC2)cc1)c1cccs1,"inconclusive [inhibitor, partial curve]"
15,O=C(COc1ccc(/C=C2/NC(=O)NC2=O)cc1)Nc1ccc(F)cc1,"inconclusive [inhibitor, partial curve, poor fit]"
16,CC(C)(C)c1ccc(OCCNC(=O)Cc2ccc(F)cc2)cc1,"inconclusive [inhibitor, single point]"
17,COCCN1C(=O)c2ccccc2C(C(=O)NCc2ccco2)C1c1c[nH]c2ccccc12 (configuration not stated),"inconclusive [inhibitor, single point]"
18,COc1ccc(CCNC(=O)/C(=C/c2cccnc2)NC(=O)c2ccccc2)cc1OC,inactive
19,COc1cc(OC)c2ccc(=O)oc2c1C(CC(=O)N1CCCC1)c1ccc(N(C)C)cc1 (configuration not stated),"inconclusive [inhibitor, partial curve, poor fit]"
20,O=C(c1cccc(S(=O)(=O)N2CCCCC2)c1)N(CCc1ccccc1)Cc1ccccc1,"inconclusive [inhibitor, single point]"
21,Cc1ccc(C(=O)NCC(=O)O)o1,inactive
22,COc1ccc(CNC(=O)C/C(C)=N/NC(=O)Cc2ccc(OC)c(OC)c2)cc1,"inconclusive [inhibitor, partial curve, poor fit]"
23,Cc1cccc(OCC(=O)Nc2cc(C)on2)c1,inactive
24,CCCCCC(=O)NNC(=O)c1c(O)c2ccccc2n(CC)c1=O,"inconclusive [inhibitor, single point]"
